The values that follow come from patent US6974820B2, “Methods for treating urinary incontinence and other disorders using trospium” (Bridge Pharma, Inc., priority 2002, dated 2005).

The structures appear in SMILES notation.

This assay deals with T1, human recombinant muscarinic receptor M-2 (Homo sapiens, UniProt P08172).
T1 sequence (P08172 1-466): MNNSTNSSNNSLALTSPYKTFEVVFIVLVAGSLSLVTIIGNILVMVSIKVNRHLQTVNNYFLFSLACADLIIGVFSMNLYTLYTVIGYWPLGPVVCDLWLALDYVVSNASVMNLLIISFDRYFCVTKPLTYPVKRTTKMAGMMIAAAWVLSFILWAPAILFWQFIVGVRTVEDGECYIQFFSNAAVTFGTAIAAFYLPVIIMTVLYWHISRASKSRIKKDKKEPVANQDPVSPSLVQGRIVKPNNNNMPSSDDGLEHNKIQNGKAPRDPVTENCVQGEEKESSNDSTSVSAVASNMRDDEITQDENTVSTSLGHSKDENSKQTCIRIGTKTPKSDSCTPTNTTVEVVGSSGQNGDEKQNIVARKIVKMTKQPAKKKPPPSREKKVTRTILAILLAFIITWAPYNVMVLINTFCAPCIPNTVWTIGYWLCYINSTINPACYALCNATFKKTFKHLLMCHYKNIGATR
In words: biochemical.

Turning to `O=C(O[C@H]1C[C@H]2CC[C@@H](C1)[N+]21CCCC1)C(O)(c1ccccc1)c1ccccc1` [Trospium, 3α-hydroxy-spiro[1αH,5αH-nortropane-8,1′-pyrrolidinium] chloride benzilate], the Ki was 0.631 nM.

The Ki is the dissociation constant of the complex between target and ligand, obtained from inhibition or displacement.
